Results on one molecule are retold here after paper PMC3546041, “Direct Homo- and Hetero-Interactions of MeCP2 and MBD2” (PLoS ONE, 2013).

The assay addresses T1, GFP-tagged full-length MBD2 (Sf9) (mouse, UniProt Q9Z2E1 1-414).
T1 construct: MBD2a, mouse, full length (414 residues by the limits of the deletion constructs); Cloned into pFB-C-GFP; also called MBD2G; MBD2aG; source: Sf9 (baculovirus); immobilised on GBP-sepharose beads and washed, or used as protein extract
The assay can be described thus: pull-down; GFP-labelled full-length MBD proteins or GFP immobilised on GBP-sepharose beads; purified MBD2st in solution; proteins extracted with 0.5 M NaCl lysis buffer; PBS plus 150 mM NaCl, 0.05% NP-40; 1 h, 4 C; Western blot with st-HRP. To be noted: both partners purified.

B1: strep-fused full-length MBD2 (natural protein, mouse)
chain: MRAHPGGGRCCPEQEEGESAAGGSGAGGDSAIEQGGQGSALAPSPVSGVRREGARGGGRGRGRWKQAARGGGVCGRGRGRGRGRGRGRGRGRGRGRPQSGGSGLGGDGGGGAGGCGGGSGGGVAPRRDPVPFPSGSSGPGPRGPRATES[about 60 residues not written out]SKLQKNKQRLRNDPLNQNKGKPDLNTTLPIRQTASIFKQPVTKFTNHPSNKVKSDPQRMNEQPRQLFWEKRLQGLSASDVTEQIIKTMELPKGLQGVGPGSNDETLLSAVASALHTSSAPITGQVSAAVEKNPAVWLNTSQPLCKAFIVTDEDIRKQEERVQQVRKKLEEALMADILSRAADTEEVDIDMDSGDEA
notes: MBD2a, mouse, full length; Made by replacing the GFP of MBD2G with a strep-tag; also called MBD2st; source: Sf9 (baculovirus), purified (Strep-Tactin Sepharose, eluted with desthiobiotin)
For the molecule B1, the binding result was “binds”.
